T1: IL-2 receptor (IL-2Ra, IL-2RB and common gamma chain) on mouse CD4+CD25+ Tregs (mouse, UniProt P01590 22-268; P16297 27-539; P34902 23-369)
T1 sequence (looked up) 1: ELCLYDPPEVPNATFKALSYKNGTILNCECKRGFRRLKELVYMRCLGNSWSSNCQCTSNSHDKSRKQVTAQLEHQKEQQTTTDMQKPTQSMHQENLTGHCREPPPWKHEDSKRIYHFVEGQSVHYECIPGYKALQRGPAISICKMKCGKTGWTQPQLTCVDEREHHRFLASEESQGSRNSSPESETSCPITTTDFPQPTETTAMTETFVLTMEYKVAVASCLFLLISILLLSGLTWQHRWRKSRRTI
T1 sequence (looked up) 2: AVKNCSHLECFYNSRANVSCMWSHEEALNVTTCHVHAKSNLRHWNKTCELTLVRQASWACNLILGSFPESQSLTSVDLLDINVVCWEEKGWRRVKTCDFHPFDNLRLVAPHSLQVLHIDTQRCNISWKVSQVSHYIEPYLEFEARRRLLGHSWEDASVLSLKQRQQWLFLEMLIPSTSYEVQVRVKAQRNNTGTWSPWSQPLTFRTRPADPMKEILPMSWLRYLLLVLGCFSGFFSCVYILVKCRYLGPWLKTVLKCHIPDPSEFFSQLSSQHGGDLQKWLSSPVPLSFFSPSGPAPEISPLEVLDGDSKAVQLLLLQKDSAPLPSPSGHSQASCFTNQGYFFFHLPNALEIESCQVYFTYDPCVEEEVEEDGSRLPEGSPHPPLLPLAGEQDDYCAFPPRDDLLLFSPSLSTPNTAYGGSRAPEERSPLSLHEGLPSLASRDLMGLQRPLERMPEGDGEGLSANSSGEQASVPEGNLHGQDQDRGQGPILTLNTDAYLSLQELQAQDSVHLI
T1 sequence (looked up) 3: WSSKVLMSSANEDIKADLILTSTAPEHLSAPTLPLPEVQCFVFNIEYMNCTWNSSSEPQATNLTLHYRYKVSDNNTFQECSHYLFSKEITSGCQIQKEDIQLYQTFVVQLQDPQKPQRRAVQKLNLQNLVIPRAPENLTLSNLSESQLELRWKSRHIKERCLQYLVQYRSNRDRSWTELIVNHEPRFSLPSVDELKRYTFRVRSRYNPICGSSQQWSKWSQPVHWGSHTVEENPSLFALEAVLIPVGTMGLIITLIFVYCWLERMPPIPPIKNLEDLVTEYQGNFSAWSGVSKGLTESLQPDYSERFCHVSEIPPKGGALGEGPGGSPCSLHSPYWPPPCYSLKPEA

T2: IL-2 receptor (IL-2Ra, IL-2RB and common gamma chain) on human CD4+CD25+ Tregs (human, UniProt P01589 22-272; P14784 27-551; P31785 23-369)
T2 sequence (looked up) 1: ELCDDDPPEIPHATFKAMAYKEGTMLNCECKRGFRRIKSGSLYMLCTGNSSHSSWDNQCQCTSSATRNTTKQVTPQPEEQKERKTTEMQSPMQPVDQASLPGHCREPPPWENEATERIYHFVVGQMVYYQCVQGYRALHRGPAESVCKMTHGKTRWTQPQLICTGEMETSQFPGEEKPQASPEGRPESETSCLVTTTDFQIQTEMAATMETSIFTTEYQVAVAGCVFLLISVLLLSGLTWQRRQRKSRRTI
T2 sequence (looked up) 2: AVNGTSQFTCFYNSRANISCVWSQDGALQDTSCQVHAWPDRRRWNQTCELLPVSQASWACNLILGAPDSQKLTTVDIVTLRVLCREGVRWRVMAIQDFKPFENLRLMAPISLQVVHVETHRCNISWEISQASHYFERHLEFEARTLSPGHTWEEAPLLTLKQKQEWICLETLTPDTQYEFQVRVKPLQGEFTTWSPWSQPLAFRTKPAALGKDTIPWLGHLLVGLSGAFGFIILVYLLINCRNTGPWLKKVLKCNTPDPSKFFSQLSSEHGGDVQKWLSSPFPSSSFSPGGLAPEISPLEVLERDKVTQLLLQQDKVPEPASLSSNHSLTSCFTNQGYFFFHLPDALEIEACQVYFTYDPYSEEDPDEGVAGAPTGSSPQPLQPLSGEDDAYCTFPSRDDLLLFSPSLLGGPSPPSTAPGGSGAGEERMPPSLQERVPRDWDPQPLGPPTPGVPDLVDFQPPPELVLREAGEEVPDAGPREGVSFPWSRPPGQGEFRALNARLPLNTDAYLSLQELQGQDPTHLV
T2 sequence (looked up) 3: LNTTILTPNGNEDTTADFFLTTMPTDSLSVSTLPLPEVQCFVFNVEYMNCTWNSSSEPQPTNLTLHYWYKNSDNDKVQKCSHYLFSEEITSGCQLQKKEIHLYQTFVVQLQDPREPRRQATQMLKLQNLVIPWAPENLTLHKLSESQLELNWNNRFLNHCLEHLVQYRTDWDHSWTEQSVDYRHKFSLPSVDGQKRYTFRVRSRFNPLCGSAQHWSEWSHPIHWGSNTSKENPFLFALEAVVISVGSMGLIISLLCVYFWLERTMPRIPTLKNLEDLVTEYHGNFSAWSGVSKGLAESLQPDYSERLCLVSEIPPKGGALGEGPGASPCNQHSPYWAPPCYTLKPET

T3: IL-7 receptor (IL-7Ra and common gamma chain) on mouse T cells (mouse, UniProt P16872 21-459; P34902 23-369)
T3 sequence (looked up) 1: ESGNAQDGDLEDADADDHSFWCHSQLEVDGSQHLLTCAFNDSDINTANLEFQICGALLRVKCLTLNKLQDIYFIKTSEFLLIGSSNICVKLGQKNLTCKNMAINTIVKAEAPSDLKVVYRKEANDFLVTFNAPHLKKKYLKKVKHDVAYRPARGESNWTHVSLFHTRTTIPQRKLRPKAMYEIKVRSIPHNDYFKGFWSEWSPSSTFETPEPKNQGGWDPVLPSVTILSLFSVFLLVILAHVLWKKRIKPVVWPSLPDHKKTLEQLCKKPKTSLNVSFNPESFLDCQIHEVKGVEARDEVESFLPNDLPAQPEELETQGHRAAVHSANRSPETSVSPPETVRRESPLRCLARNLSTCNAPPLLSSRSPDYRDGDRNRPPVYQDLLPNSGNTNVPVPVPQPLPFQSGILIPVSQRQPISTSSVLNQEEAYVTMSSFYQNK
T3 sequence (looked up) 2: T1 sequence (looked up) 3

T4: IL-7 receptor (IL-7Ra and common gamma chain) on human PBMC T cells (human, UniProt P16871 21-459; P31785 23-369)
T4 sequence (looked up) 1: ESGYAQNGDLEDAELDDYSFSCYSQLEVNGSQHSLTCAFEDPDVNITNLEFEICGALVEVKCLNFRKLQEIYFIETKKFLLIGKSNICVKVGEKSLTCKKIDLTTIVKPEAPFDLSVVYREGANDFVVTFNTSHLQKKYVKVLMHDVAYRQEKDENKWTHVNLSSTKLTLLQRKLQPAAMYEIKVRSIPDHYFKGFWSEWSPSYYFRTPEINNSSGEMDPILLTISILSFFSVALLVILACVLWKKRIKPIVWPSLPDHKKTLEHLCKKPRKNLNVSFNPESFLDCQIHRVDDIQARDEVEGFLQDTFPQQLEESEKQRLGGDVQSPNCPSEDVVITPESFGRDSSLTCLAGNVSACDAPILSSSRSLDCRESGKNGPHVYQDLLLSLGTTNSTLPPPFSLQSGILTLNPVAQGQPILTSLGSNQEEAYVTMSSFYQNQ
T4 sequence (looked up) 2: T2 sequence (looked up) 3

B1: hAlb-hIL2 (human IL-2 fused to the C-terminus of human serum albumin; translated protein of BNT153 / RBP006.1) (ligand)
chain: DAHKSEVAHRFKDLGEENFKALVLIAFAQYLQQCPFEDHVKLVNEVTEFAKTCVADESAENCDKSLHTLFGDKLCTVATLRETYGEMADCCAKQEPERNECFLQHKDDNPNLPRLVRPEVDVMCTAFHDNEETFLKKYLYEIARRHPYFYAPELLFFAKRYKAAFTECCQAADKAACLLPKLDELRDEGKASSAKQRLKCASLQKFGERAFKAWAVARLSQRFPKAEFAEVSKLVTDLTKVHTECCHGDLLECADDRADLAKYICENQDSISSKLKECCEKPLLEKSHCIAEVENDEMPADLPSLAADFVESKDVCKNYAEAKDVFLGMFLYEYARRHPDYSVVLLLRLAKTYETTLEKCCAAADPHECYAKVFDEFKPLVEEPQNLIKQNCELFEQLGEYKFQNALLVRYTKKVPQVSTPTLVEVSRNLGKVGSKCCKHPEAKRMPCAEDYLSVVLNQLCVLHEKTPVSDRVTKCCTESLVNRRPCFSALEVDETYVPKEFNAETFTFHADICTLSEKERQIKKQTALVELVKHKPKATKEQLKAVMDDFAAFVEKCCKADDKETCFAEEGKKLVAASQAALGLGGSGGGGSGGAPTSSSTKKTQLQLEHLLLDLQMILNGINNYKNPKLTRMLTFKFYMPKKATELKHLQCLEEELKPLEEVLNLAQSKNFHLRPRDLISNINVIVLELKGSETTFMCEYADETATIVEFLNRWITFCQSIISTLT
B2: hIL7-hAlb (human IL-7 fused to the N-terminus of human serum albumin; translated protein of BNT152 / RBP009.1) (ligand)
chain: DCDIEGKDGKQYESVLMVSIDQLLDSMKEIGSNCLNNEFNFFKRHICDANKEGMFLFRAARKLRQFLKMNSTGDFDLHLLKVSEGTTILLNCTGQVKGRKPAALGEAQPTKSLEENKSLKEQKKLNDLCFLKRLLQEIKTCWNKILMGTKEHGGSGGGGSGG[about 600 residues left out]

Columns and labels:
Test in all cases: cell-based or functional assay
[1] = target: IL-2 receptor (IL-2Ra, IL-2RB and common gamma chain) on cynomolgus monkey CD4+CD25+ Tregs (cynomolgus monkey, UniProt H6WS54 22-272; Q38J85 27-551)
[2] = target: T1, IL-2 receptor (IL-2Ra, IL-2RB and …)
[3] = target: T2, IL-2 receptor (IL-2Ra, IL-2RB and …)
[4] = target: T5, IL-7 receptor (IL-7Ra and common gamma chain) on cynomolgus monkey PBMC T cells (cynomolgus monkey, UniProt Q38IC7 21-459)
[5] = target: T3, IL-7 receptor (IL-7Ra and common gamma …)
[6] = target: T4, IL-7 receptor (IL-7Ra and common gamma …)
[7] = target: T5, IL-7 receptor (IL-7Ra and common gamma …); remark: listed apart in the source

Row | Binder | EC50 of STAT5 phosphorylation, cynomolgus monkey CD4+CD25+ Tregs [1] | EC50 of STAT5 phosphorylation, mouse CD4+CD25+ Tregs [2] | EC50 of STAT5 phosphorylation, human CD4+CD25+ Tregs [3] | fold-increased potency versus human (STAT5 phosphorylation), cynomolgus monkey CD4+CD25- T cells [4] | fold-increased potency versus human (STAT5 phosphorylation), cynomolgus monkey CD8+ T cells [4] | EC50 of STAT5 phosphorylation, mouse CD4+CD25- T cells [5] | EC50 of STAT5 phosphorylation, mouse CD8+ T cells [5] | EC50 of STAT5 phosphorylation, human CD8+ T cells [6] | EC50 of STAT5 phosphorylation, cynomolgus monkey CD4+CD25- T cells [7] | EC50 of STAT5 phosphorylation, cynomolgus monkey CD8+ T cells [7]
1 | B1 | 0.01 % supernatant | 0.01 % supernatant | 0.01 % supernatant |  |  |  |  |  |  | 
2 | B2 |  |  |  | ~3.5 fold | ~2.4 fold | 0.24 % supernatant | 0.28 % supernatant | 0.29 % supernatant | 0.06 % supernatant | 0.12 % supernatant

Reference: US20240335511A1 (BIONTECH, published 2024)
